Screen size: about 310,000 compounds; about 14,000 (4.5%) showed an effect of 50% or more. Effects have a minus sign here. Some of the results follow.
Target: human ether-à-go-go-related gene (hERG) potassium channel (human, UniProt Q12809)
Assay: primary screen, population patch clamp on CHO cells stably expressing hERG
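Also: peak tail current of the secondary pulse compared with the same well before compound.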

Sequence of human ether-à-go-go-related gene (hERG) potassium channel (Q12809 whole entry, looked up): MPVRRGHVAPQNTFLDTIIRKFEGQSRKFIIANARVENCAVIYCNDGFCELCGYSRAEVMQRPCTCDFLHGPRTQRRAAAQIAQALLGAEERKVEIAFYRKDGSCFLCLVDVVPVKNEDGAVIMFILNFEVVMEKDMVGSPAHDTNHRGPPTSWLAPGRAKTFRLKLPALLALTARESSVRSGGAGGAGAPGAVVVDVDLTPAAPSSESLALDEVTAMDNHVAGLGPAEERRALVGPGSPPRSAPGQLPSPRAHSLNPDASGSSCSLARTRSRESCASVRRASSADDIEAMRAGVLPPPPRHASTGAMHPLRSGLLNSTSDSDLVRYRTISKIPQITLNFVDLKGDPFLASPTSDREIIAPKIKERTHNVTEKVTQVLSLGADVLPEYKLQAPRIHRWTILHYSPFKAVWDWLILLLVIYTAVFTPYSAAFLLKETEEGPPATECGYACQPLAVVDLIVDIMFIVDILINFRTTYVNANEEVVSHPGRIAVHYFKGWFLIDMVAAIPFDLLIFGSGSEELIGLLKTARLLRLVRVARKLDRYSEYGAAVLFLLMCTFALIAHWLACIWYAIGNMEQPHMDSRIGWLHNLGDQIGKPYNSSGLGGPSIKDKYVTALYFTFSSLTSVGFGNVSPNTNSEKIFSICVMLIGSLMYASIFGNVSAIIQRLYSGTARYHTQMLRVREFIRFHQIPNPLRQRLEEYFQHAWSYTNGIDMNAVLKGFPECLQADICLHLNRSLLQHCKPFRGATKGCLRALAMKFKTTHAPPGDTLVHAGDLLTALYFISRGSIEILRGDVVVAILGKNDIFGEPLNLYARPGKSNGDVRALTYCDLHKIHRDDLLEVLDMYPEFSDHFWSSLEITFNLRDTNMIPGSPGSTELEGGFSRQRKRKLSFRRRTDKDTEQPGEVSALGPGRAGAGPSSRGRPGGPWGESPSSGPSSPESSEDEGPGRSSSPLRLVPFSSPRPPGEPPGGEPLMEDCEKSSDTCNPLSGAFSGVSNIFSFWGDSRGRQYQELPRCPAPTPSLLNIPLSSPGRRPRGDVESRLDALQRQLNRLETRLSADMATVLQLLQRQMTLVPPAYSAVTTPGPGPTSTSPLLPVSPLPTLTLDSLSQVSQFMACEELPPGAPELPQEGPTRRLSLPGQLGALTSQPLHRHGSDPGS

Compound	hERG current change (%, negative = inhibition) at 10uM [%]
CCC(Sc1nc(N)cc(=O)[nH]1)C(=O)Nc1cc(C)on1 (stereo not shown)	13
c1ccc(Oc2cccc(OCCCCN3CCCC3)c2)cc1	-78.3
CCOC(=O)C(C)Oc1cccc2c(=O)n(CC(=O)NCCc3ccc(OC)c(OC)c3)ccc12 (stereo not shown)	-7.08
CCN1CCCC1CNC(=O)c1ccccc1Cl (stereo not shown)	-10.6
CCC(C)[C@H]1CNCCN1CCC12CC3CC(CC(C3)C1)C2 (stereo partly shown)	12.5
COc1ccc(C(=O)N2CCC(C(=O)Nc3ccc4c(c3)OCO4)CC2)cc1	-79.9
Cc1ccccc1-n1c(O)c(C=NCCN2CCOCC2)c(=O)[nH]c1=O	-6.37
CCOc1ccc(/C=C2\SC(=S)N(C)C2=O)cc1OC	6.49
CC1Cc2nc(SCC(=O)Nc3nccs3)n(Cc3ccccc3)c(=O)c2S1 (stereo not shown)	2.84
Cc1cccc(OCCNC(=O)CCc2ccccc2)c1	8.81
COc1ccc(-c2cc(C(=O)Nc3cc(C)on3)no2)cc1	19.9
CC1(NC(=S)N(CCO)CCO)CCS(=O)(=O)C1 (stereo not shown)	3.47
COc1ccc(C(=O)COC(=O)C(CCCCN2C(=O)C3C4C=CC(C4)C3C2=O)N2C(=O)C3C4C=CC(C4)C3C2=O)cc1 (stereo not shown)	-46.3
COc1ccc(C[C@H]2CN3C(=NC[C@H]3C)N2CCNC(=O)c2ccc(C)c(Br)c2)cc1	-72
COc1ccc(C=Nc2ccc3[nH]ncc3c2)c(O)c1	19.7
COc1cccc(C2c3[nH]c4ccccc4c3C[C@H]3C(=O)N(c4ccccc4C(=O)N4CCC[C@H]4C(=O)O)C(=O)N23)c1 (stereo partly shown)	12.4
CCN(CC)c1ccc2c(cc1=O)[C@@H](NC)CCc1cc(OC)c(OC)c(OC)c1-2	-1.31
COc1ccc(N2CCN(c3ncnc4c3[nH]c3ccccc34)CC2)cc1	16.5
COc1ccc(C2c3sc(=O)[nH]c3SCC2C(N)=O)cc1 (stereo not shown)	7.32
COc1ccc(N2CCN(CC(=O)c3ccc(Cl)cc3)CC2)cc1	10.5
C[C@H]1CN=C(N(C)C)N1CC1CCCCC1	7.73
C[C@H](NC(=O)[C@@H]1Cc2ccccc2CN1C(=O)OC(C)(C)C)C(=O)NCc1ccco1	30

Compound	hERG current change (%, negative = inhibition) at 10uM [%]
Cc1ccc2c(c1)N(Cc1ccccn1)C(=O)C(C)O2 (stereo not shown)	-2.29
CCc1ccc(N/C(N)=N/c2nc(CSc3ncccn3)cc(=O)[nH]2)cc1	20.9
Cc1nnc(NC(=O)CSc2nc3[nH]ncc3c(=O)[nH]2)s1	14.9
O=C1CC(NS(=O)(=O)c2cc(F)ccc2F)CN1c1ccc2c(c1)OCCO2 (stereo not shown)	-4.13
O=C(Nc1nnc(-c2ccccc2)o1)C1CCCN1S(=O)(=O)c1cccs1 (stereo not shown)	5.16
CC(C)CCNC(=O)c1cc(C(=O)c2cc(F)ccc2O)cn(CCC(C)C)c1=O	17.4
CC(C)Cc1ccc(C(=O)NCCOc2ccccc2)o1	-22.9
CCCc1ccc(Oc2cn[nH]c2-c2ccc(O)cc2O)cc1	12.5
COc1ccccc1-c1noc2ncnc(Nc3cccc(C)c3)c12	15.9
CC(=O)N1CCc2cc(S(=O)(=O)NC(CC(C)C)C(=O)N3CCc4ccccc4C3)ccc21 (stereo not shown)	-26.8
CCOc1cc(NC(=O)c2cccs2)c(OCC)cc1NC(=O)c1ccccn1	-9.78
COc1ccc(COC(=O)C2=C(C)NC(=O)NC2c2ccc(F)cc2)cc1 (stereo not shown)	1.67
O=C(CCc1nc2ccccc2[nH]1)Nc1ccc(F)cc1	-11
CCc1ccc(N=C2NC(=O)/C(=C/c3cc(OC)c(OC)c(OC)c3)S2)cc1	16
N/C(=N\OC(=O)Oc1ccccc1)c1ccc([N+](=O)[O-])cc1	18.1
CC(=O)Nc1cccc(CP(=O)(c2ccccc2)c2ccccc2)c1	14.6
Cc1cc(C(=O)Nc2ccc3nc(C)sc3c2)c2ccccc2n1	7.1
CCC(=O)Oc1oc(-c2ccccc2)nc1C=Nc1ccc(C)cc1	11.4
NC(=O)c1ccc(-c2noc(-c3cccc(Cl)c3)n2)cc1	19.4
O=C(c1cccc(Cl)c1)N1CCCc2ccccc21	-8.07
CC1CCN(S(=O)(=O)c2ccc(S(=O)(=O)NCc3ccccc3)cc2)CC1	1.51
CCC(C(=O)NC(C)(C)C)N(Cc1ccccc1Cl)C(=O)c1snc(C(N)=O)c1N (stereo not shown)	7.77

Compound	hERG current change (%, negative = inhibition) at 10uM [%]
CN(c1cccc(Cl)c1)S(=O)(=O)c1cccc(C(=O)NN2CCOCC2)c1	-14.1
CCCCc1ccc(/C(C)=N/Nc2cc(N3CCOCC3)nc(C)n2)cc1	4.93
C/C(N)=C(/C#N)C(=O)COC(=O)CNS(=O)(=O)c1ccc(C)cc1	29.7
COc1cc(CC(=O)Oc2ccc3c(c2)OCO3)cc(OC)c1OC	-2.51
Cc1cc2cc3c(N)[nH]nc3nc2cc1C	5
O=C(NCN1C(=O)C2C3C=CC(C3)C2C1=O)Nc1cccnc1 (stereo not shown)	1.61
CCCCNC(=O)c1cc2cc(OC)ccc2[nH]1	0.875
CCn1c(=O)cc(C(F)(F)F)[nH]c1=S	30.5
CN1C(=O)c2ccc(NC(=O)c3ccc(N4CCCCC4)c([N+](=O)[O-])c3)cc2C1=O	-21.3
CC(=O)Nc1ccc(C(=O)OCC(=O)NCc2ccccc2)cc1	11.9
CSc1cccc(NC(=S)NC(=O)c2cccnc2)c1	11.3
O=[N+]([O-])c1cc(F)c(N2CCOCC2)cc1N1CCCCC1	-11.4
CCCCC[n+]1ccn(-c2nc3ccccc3nc2[N-]S(=O)(=O)c2ccccc2)c1	-39.6
CCCC1NC(=S)NC(C)=C1C(C)=O (stereo not shown)	16.7
COc1cccc(Nc2nc(-c3sc(C)nc3C)cs2)c1	-9.73
O=C(c1ccccc1)c1cc2c(cc1[N+](=O)[O-])OCCO2	-8.32
CC(=O)C1=C(O)C(=O)N(CCCN2CCOCC2)C1c1ccccc1[N+](=O)[O-] (stereo not shown)	14.6
Cc1cc(C)c2c(=O)[nH]c(SCC(=O)Nc3ccccc3)nc2n1	4.85
Cc1cc(C(=O)CSc2n[nH]c(N)n2)c(C)n1C1CC1	1.52
COc1cc(/C=C(\NC(C)=O)C(=O)N2CCCCC2)ccc1OC(C)=O	10.6
COc1ccc(NC(=S)Nc2cc(C)ccn2)c(OC)c1	12.1
CC(C)CNC(=O)c1coc(=O)c(Br)c1	23.6

Compound	hERG current change (%, negative = inhibition) at 10uM [%]
COc1ccc(N=NC2=C(O)CC(C)(C)CC2=O)c(OC)c1	13.3
CCCCNS(=O)(=O)c1ccc2nc(-c3cccnc3)cc(C(=O)NC3CC3)c2c1	-28
COc1ccccc1NC(=O)CS(=O)(=O)c1cn(CC(=O)N2CCOCC2)c2ccccc12	-3.84
NC(=O)c1ccccc1NC(=S)NC(=O)c1ccc(Br)o1	-10.1
O=C(CN(C(=O)c1csnn1)c1ccc(F)c(Cl)c1)NCc1ccc2c(c1)OCO2	-19.5
CC(C)C[C@H](NC(=O)c1nc[nH]c1C(=O)NCc1ccc(CNC(=O)OC(C)(C)C)cc1)C(=O)OCc1ccccc1	2.91
CC[n+]1c(/C=C/C=C/c2ccc(N(C)C)cc2)sc2ccccc21.[O-][Cl+3]([O-])([O-])[O-]	-73.4
CCn1c(CSc2nccn2C)nc2cc(C(=O)O)ccc21	5.81
Cc1ccc(OCC(O)CN2CCC(Cc3ccccc3)CC2)c(C)c1.Cl (stereo not shown)	-75.2
COc1ccc(C(=O)NNC(=O)CCn2nnc(-c3ccc(C)cc3)n2)cc1OC	17
CCOc1c(O)ccc(C2NC(=O)NC(C)=C2C(=O)OC)c1[N+](=O)[O-] (stereo not shown)	-6.35
O=C(Nc1ccc(F)cc1)c1cccnc1Oc1ccccc1	-7.73
COC(=O)C1(S(=O)(=O)C2(C(=O)OC)CCCC2)CCCC1	-1.71
O=C(Nc1nccs1)c1cc2sccc2n1Cc1ccc(Cl)cc1	-2.4
CC(C)(CO)NC12CC3CC(CC(C3)C1)C2	-1.97
CC(=O)NNC(=O)CN1C(=O)CN=C(c2ccccc2)c2cc(Br)ccc21	13.1
CC(C)(C)CC(=O)Nc1cc(S(=O)(=O)N2CCOCC2)ccc1N1CCCC1	12.8
Cc1ccc(CNC(=O)Nc2ccc(OC(F)(F)F)cc2)n1C	11.3
O=C(/C=C/c1ccccc1[N+](=O)[O-])N1CCCCC1	-2.55
O=C(COC(=O)c1cnccn1)NC(=O)c1ccccc1	-7.38
COc1cc(C(=O)O/N=C(\N)c2cccc([N+](=O)[O-])c2)cc(OC)c1OC	10.3
N#C/C(C(=O)NCc1ccccc1)=C1/SC(Cc2ccc(Cl)cc2)C(=O)N1c1ccccc1 (stereo not shown)	14.4
